Molecules are shown by their SMILES. Several values for one entry are separate records, joined by “and”; a condition that tells them apart may be missing. Equal values may be shown once. ± gives the uncertainty stated by the source. Over roughly 9,900 compounds, “viability index relative to DMSO control” has its median near 1; the lowest 2% begin near 0.85. The list shows a part of the results.

The test system of the assay is Plasmodium falciparum NF54 stage V gametocytes. In words: viability index relative to DMSO control (fraction); higher = less gametocyte killing. Conditions: 2.5 µM, library set: Broad Institute DOS, incubation time: 72 h. The procedure, abridged: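 P. falciparum NF54 stage V gametocytes in serum-free screening medium (0.75% gametocytemia, 1.25% hematocrit, 10 µl) were incubated with compound at 2.5 µM in 1,536-well plates for 72 hr at 37°C under low oxygen. Then 3 µl of 2.5 µM MitoTracker Red CMXRos plus 0.13% saponin was added for one to two hours. One field per well was imaged, 20–70 µm2 red particles were counted, and the viability index was the count divided by the plate mean of DMSO wells.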
In the case of `CO[C@@H](CN(C)C(=O)c1cnccn1)[C@@H](C)CN([C@H](C)CO)S(=O)(=O)c1ccccc1`, the viability index turned out to be 0.911 ± 0.015.
As for `CN1C(=O)c2cc(NS(C)(=O)=O)ccc2OC[C@H]2O[C@@H](CC(=O)N3CCOCC3)CC[C@H]21`, the viability index was found to be 1.07 ± 0.066.
`C[C@@H]1CN([C@@H](C)CO)C(=O)c2ccccc2-c2ccccc2CO[C@H]1CN(C)C(=O)Nc1cccc(Cl)c1Cl`: the viability index turned out to be 0.72 ± 0.16.
In turn, `CN(C)C(=O)c1cc2c(c(-c3cccc(C4=CCCCC4)c3)n1)[C@H](CCO)N(S(C)(=O)=O)C2` displayed a viability index of 0.989 ± 0.071.
With `COC(=O)C[C@@H]1C[C@H]2c3cc(NC(=O)c4ccc5c(c4)OCO5)ccc3O[C@H]2[C@@H](CO)O1` the figure was 1.11 ± 0.022.
Compound `COc1ccccc1-c1ccccc1[C@@H]1[C@@H](C#N)N(C(=O)CN(C)C)[C@H]1CO` returned a viability index of 1.16 ± 0.1.
With `COc1ccc2c3c([nH]c2c1)[C@@H](CO)N(C[C@]31CN(Cc2ccccc2)C1)C(=O)CN1CCOCC1` the figure was 0.937 ± 0.1.
For the compound `CN(C)Cc1cn(CC[C@H]2CC[C@@H](NC(=O)Cc3cccnc3)[C@@H](CO)O2)nn1`, the viability index amounted to 1.02 ± 0.02.
As to `O=C(CC1CC1)N1CC(=O)N2[C@H](C1)[C@@H](c1ccc(/C=C/c3ccccc3)cc1)[C@@H]2CO`, the viability index was 1.04 ± 0.096.
With `CN1C(=O)c2cc(NC(=O)Cc3cccs3)ccc2OC[C@@H]2O[C@@H](CC(=O)NCCc3ccncc3)CC[C@@H]21` the figure was 1.07 ± 0.14.
The compound `O=C(C1CCOCC1)N1CC(=O)N2[C@H](CO)[C@H](c3ccc(-c4cccnc4)cc3)[C@@H]2C1` showed a viability index of 1.09 ± 0.13.
The compound `COCC(=O)Nc1ccc2c(c1)[C@@H]1C[C@H](CC(=O)N[C@H](C)c3ccccc3)O[C@H](CO)[C@@H]1O2` showed a viability index of 1.03 ± 0.05.
With `O=C(C[C@@H]1CC[C@H](NS(=O)(=O)c2ccccc2F)[C@@H](CO)O1)NCCCN1CCOCC1` the figure was 1.02 ± 0.12; with `C[C@@H]1CN([C@H](C)CO)C(=O)CCCn2nncc2CO[C@H]1CN(C)C(=O)CCC(F)(F)F`, 0.954 ± 0.021; with `CCC(=O)N1C[C@H](C)[C@H](OC)CN(C)C(=O)c2ccc(NC(=O)CC(F)(F)F)cc2OC[C@@H]1C`, 1.08 ± 0.032.
The figure for `C/C=C/c1ccc2n(c1=O)C[C@@H]1[C@@H](CO)[C@H](C(=O)N[C@@H](C)c3ccccc3)N(C(=O)c3ccccn3)[C@H]21.C/C=C\c1ccc2n(c1=O)C[C@@H]1[C@@H](CO)[C@H](C(=O)N[C@@H](C)c3ccccc3)N(C(=O)c3ccccn3)[C@H]21` is 1.09 ± 0.013.
With `COc1cccc(S(=O)(=O)N2C[C@@H](O)COC[C@H]3O[C@@H](CC(=O)NCCCN4CCOCC4)CC[C@@H]32)c1` the figure was 1.01 ± 0.1.
Compound `C[C@@H]1CN([C@H](C)CO)C(=O)c2ccccc2-c2ccccc2CO[C@@H]1CN(C)Cc1ccc2c(c1)OCCN2C` gave a viability index of 0.968 ± 0.014.
Turning to `CC(C)NC(=O)N1Cc2cc(C(=O)NC3CCC3)nc(-c3cccc(-c4cncnc4)c3)c2[C@@H]1CCO`, the viability index was found to be 1.01 ± 0.018.
The figure for `C[C@@H]1CN([C@H](C)CO)C(=O)c2cc(NC(=O)Nc3cccc4ccccc34)ccc2O[C@@H]1CN(C)S(=O)(=O)c1cccs1` is 0.977 ± 0.082; for `O=C(CN1CCOCC1)N1[C@@H]2CNc3ccccc3[C@@H]2[C@@H]1CO` it is 1.05 ± 0.078.
`N#C[C@@H]1[C@@H](c2ccccc2-c2cccc(F)c2)[C@H](CO)N1C(=O)CN1CCOCC1` had a viability index of 1.08 ± 0.058.
As for `COC(=O)[C@@H]1[C@@H](CO)[C@@H]2Cn3c(ccc(-c4ccccc4OC)c3=O)[C@@H]2N1C(=O)c1cnccn1`, the viability index came to 1.09 ± 0.054.
As for `C[C@@H]1CN([C@H](C)CO)C(=O)c2cc(NC(=O)Cn3cnnn3)ccc2O[C@H]1CN(C)C(=O)Nc1ccc2c(c1)OCO2`, the viability index was 1.01 ± 0.13.
The figure for `C/C=C/c1ccc([C@H]2[C@H]3CN(C(=O)Nc4ccc(F)cc4)CC(=O)N3[C@H]2CO)cc1` is 0.995 ± 0.042; for `C[C@H](CO)N1C[C@H](C)[C@@H](CN(C)Cc2cccc(C(=O)Nc3ccccc3N)c2)OCc2ccccc2-c2c(n(C)c3ccccc23)C1=O` it is 0.887 ± 0.053.
The figure for `N#C[C@H]1[C@@H](c2ccccc2)[C@H](CO)N1C(=O)c1ccccc1F` is 1.09 ± 0.032; for `Cc1noc(C)c1S(=O)(=O)Nc1ccc2c(c1)C(=O)N([C@@H](C)CO)C[C@@H](C)[C@H](CN(C)Cc1ccc(C(=O)O)cc1)OCCCC[C@@H](C)O2` it is 1.14 ± 0.17; for `CCS(=O)(=O)N1CC2(C1)[C@H](c1ccccc1)[C@H](CO)N2Cc1ccccn1` it is 1.08 ± 0.082.
With `CCCC#Cc1ccc([C@@H]2[C@H](C#N)N(C(=O)CN3CCOCC3)[C@H]2CO)cc1` the figure was 1.1 ± 0.042; with `CO[C@H]1CN(C)C(=O)c2cc(NC(=O)NC(C)C)ccc2OC[C@@H](C)N(Cc2ccccc2)C[C@@H]1C`, 0.951 ± 0.04.
As for `CN1C(=O)c2cc(NS(=O)(=O)c3cccc(F)c3)ccc2OC[C@H]2O[C@@H](CC(=O)N3CCc4ccccc4C3)CC[C@H]21`, the viability index came to 1.07 ± 0.069.
The figure for `COc1ccc(C#Cc2ccc3c(c2)[C@H]2[C@H](CCN2C(=O)Nc2ccc(C(F)(F)F)cc2)[C@@H](CO)N3C)cc1` is 1.09 ± 0.013; for `CC(=O)N1CCCCN2[C@@H](CO)[C@H](c3ccc(-c4ccccc4)cc3)[C@@H]2C1` it is 1.07 ± 0.068; for `O=C(C[C@@H]1C=C[C@H](NC(=O)Nc2ccc3c(c2)OCO3)[C@H](CO)O1)NCCCN1CCOCC1` it is 0.947 ± 0.071.
`O=C1CCCn2cc(nn2)COCCN1` gave a viability index of 0.987 ± 0.11.
With `C[C@@H]1CN([C@H](C)CO)C(=O)c2cc(NC(=O)Cn3cnnn3)ccc2O[C@@H]1CN(C)C(=O)Nc1ccc2c(c1)OCO2` the figure was 0.99 ± 0.022.
For the compound `O=C(c1cnccn1)N1CC(=O)N2[C@@H](CO)[C@H](c3ccc(/C=C/c4ccccc4)cc3)[C@@H]2C1`, the viability index amounted to 1.05 ± 0.098.
On to `O=C(C[C@H]1CC[C@@H](NC(=O)CC2CC2)[C@@H](CO)O1)NCC(F)(F)F`, for which the viability index was 0.998 ± 0.059.
On to `COc1ccccc1-c1cccc(-c2nc(C(=O)N3CCN(C)CC3)cc3c2[C@@H](CCO)N([S@](=O)C(C)(C)C)C3)c1`, for which the viability index came out at 0.997 ± 0.12.
With `CN(C)C(=O)c1ccc(-c2ccc([C@@H]3[C@H]4CNC[C@@H]3N4S(=O)(=O)c3ccc(Cl)cc3)cc2)cc1` the figure was 1.17 ± 0.052; with `CC(C)C#Cc1ccc([C@@H]2[C@@H](C#N)N(C(=O)c3cccc(F)c3)[C@H]2CO)cc1`, 1.0706 ± 0.00037.
The figure for `Cc1noc(C)c1NC(=O)N(C)C[C@@H]1OCc2cn(nn2)CCCC(=O)N([C@H](C)CO)C[C@H]1C` is 1.05 ± 0.037.
`CN(C)C(=O)c1ccc(-c2ccc([C@@H]3[C@H](C#N)N[C@H]3CO)cc2)cc1` displayed a viability index of 1.11 ± 0.13.
The figure for `COc1cccc(-c2ccc([C@@H]3[C@@H]4CN(S(=O)(=O)Cc5ccccc5)C[C@H]3N4)cc2)c1` is 0.808 ± 0.031; for `C[C@H](CO)N1C[C@H](C)[C@H](CN(C)C(=O)Nc2cccc(Oc3ccccn3)c2)OCc2cnnn2CCCC1=O` it is 1.02 ± 0.022.
Regarding `O=C(c1ccncc1)N1C[C@H]2[C@@H](c3ccccc31)[C@@H](CO)N2Cc1ccccc1F`, the viability index was 1.03 ± 0.053.
As for `CN1C(=O)c2cc(NC(=O)c3cccc(F)c3)ccc2OC[C@H]2O[C@@H](CC(=O)NCc3ccccc3Cl)CC[C@@H]21`, the viability index was found to be 1.06 ± 0.031.
The figure for `C[C@H]1CCCCO[C@@H](CN(C)C(=O)CCC(F)(F)F)[C@@H](C)CN([C@@H](C)CO)C(=O)c2cc(NC(=O)C3CCCCC3)ccc2O1` is 1.06 ± 0.13; for `N#C[C@H]1[C@@H](c2ccccc2C2=CCCC2)[C@H](CO)N1C(=O)C1CCOCC1` it is 1.09 ± 0.17; for `COc1cccc(NC(=O)Nc2ccc3c(c2)C(=O)N(C)C[C@@H](OC)[C@H](C)CN(CC2CC2)[C@H](C)CO3)c1` it is 1.06 ± 0.035.
The figure for `O=C(Cc1cccnc1)N1CC(=O)N2[C@@H](CO)[C@@H](c3ccc(C#CC4CCCCC4)cc3)[C@@H]2C1` is 1.04 ± 0.028; for `CCCNC(=O)Nc1ccc2c(c1)OC[C@H](C)N(Cc1cncnc1)C[C@H](C)[C@H](OC)CN(C)C2=O` it is 1.06 ± 0.075.
With `C[C@H]1CN([C@@H](C)CO)C(=O)c2ccccc2-c2ccccc2CO[C@H]1CN(C)S(=O)(=O)c1cccc(C#N)c1` the figure was 0.982 ± 0.11; with `COc1ccc(NC(=O)Nc2cccc3c2O[C@H](CN(C)Cc2ccc(C(=O)O)cc2)[C@H](C)CN([C@H](C)CO)C3=O)cc1`, 0.884 ± 0.2; with `COc1ccc(CN(C)C[C@@H]2Oc3ccc(NC(=O)Nc4ccc5c(c4)OCO5)cc3CC(=O)N([C@H](C)CO)C[C@H]2C)cc1`, 0.939 ± 0.081.
In turn, `COc1ccc2c3c([C@@H](CO)N(CC4CC4)C[C@]33CCN(CC3)S(=O)(=O)c3cccs3)n(C)c2c1` registered a viability index of 0.991 ± 0.044.
With `COCCNC(=O)C[C@H]1CC[C@@H]2[C@H](COc3ccc(NC(=O)Nc4cccc(F)c4)cc3C(=O)N2C)O1` the figure was 1.16 ± 0.029; with `CN1C(=O)c2cc(NC(=O)C3CCOCC3)ccc2OC[C@@H]2O[C@@H](CC(=O)NCc3ccccc3F)CC[C@H]21`, 1 ± 0.012.
With `Cc1ccc(S(=O)(=O)N(C)C[C@H]2Oc3c(NS(C)(=O)=O)cccc3C(=O)N([C@H](C)CO)C[C@H]2C)cc1` the figure was 0.988 ± 0.11; with `C[C@H](CO)N1C[C@H](C)[C@H](CN(C)C(=O)NC2CCCCC2)Oc2c(NC(=O)c3cnccn3)cccc2C1=O`, 1.03 ± 0.034; with `C[C@@H]1CN([C@@H](C)CO)C(=O)c2cccc(NC(=O)c3cnccn3)c2O[C@H]1CN(C)C(=O)NC1CCCCC1`, 0.861 ± 0.13.
The figure for `COc1cccc(NC(=O)C[C@@H]2CC[C@@H]3[C@H](COc4ccc(NC(=O)C5CC5)cc4C(=O)N3C)O2)c1` is 1.14 ± 0.079; for `C[C@@H]1CN([C@@H](C)CO)C(=O)c2cc(NC(=O)C3CCCCC3)ccc2O[C@@H](C)CCCCO[C@@H]1CN(C)C(=O)CCC(F)(F)F` it is 1.05 ± 0.025; for `O=C(Nc1cccc(F)c1)N1CCCCN2[C@H](C1)[C@@H](c1ccc(C#Cc3cccnc3)cc1)[C@@H]2CO` it is 0.81 ± 0.05.
Turning to `Cc1noc(C)c1C(=O)N(C)C[C@@H]1OCc2ccccc2-c2ccccc2C(=O)N([C@@H](C)CO)C[C@@H]1C`, the viability index came out at 0.983 ± 0.044.
As to `CNC[C@@H]1OCCCC[C@@H](C)Oc2ccc(NS(=O)(=O)c3ccc(F)cc3)cc2C(=O)N([C@@H](C)CO)C[C@@H]1C`, the viability index turned out to be 1.01 ± 0.019.
Consider `CN1C(=O)c2cc(NC(=O)c3cccc(F)c3)ccc2OC[C@@H]2O[C@H](CC(=O)NCC3CCCCC3)CC[C@H]21`, for which the viability index was 1.12 and 1.19.

Values taken from the supplement of paper PMC4723716.
